Test results published in the supplement of paper PMC3334620.
Whole data set: some 33,000 sequences, median “E-score (-0.5 to 0.5)” near -0.017, cut for the highest 2% near 0.3. The list shows a part of the results.

target: T1, Sut1 (UniProt P53032); experiment: PBM E-score (8-mer binding enrichment) (E-score (-0.5 to 0.5)); higher = stronger / more preferred TF binding; most listed sequences are background and not binding sites; settings: protein concentration: 200 nM; construct: GST-full length
T1 sequence: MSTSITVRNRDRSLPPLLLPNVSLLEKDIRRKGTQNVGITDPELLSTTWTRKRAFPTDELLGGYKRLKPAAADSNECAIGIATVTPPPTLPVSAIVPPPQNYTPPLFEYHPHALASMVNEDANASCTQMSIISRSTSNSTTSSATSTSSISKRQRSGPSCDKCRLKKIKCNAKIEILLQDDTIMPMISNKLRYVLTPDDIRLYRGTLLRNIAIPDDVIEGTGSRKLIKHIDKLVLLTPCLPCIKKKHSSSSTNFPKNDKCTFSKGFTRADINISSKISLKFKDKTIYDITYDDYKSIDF
Description: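 Universal 'all 10-mer' protein binding microarrays (Agilent AMADID 015681) probed with GST-tagged S. cerevisiae TFs (full-length or DBD) made by in vitro transcription/translation (PURExpress), about 100-200 nM. Bound TF was detected with fluorescent anti-GST. Each ungapped 8-mer (which stands for itself and its reverse complement) is scored by the PBM enrichment score (E-score), a modified Wilcoxon-Mann-Whitney statistic from -0.5 to +0.5, computed with the Universal PBM Analysis Suite. Scale: above 0.35 generally sequence-specific binding.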

| Sequence | PBM E-score |
| --- | --- |
| CAACCGAA | 0.147 |
| AGAATGGC | 0.161 |
| TATCCTCA | -0.0457 |
| AGGCAACT | 0.151 |
| AACGAAAT | 0.204 |
| AAGGGACC | -0.209 |
| CCTCATAG | -0.008 |
| AACTGTAT | 0.214 |
| GCTAGTAC | -0.14 |
| CCAGGAAG | -0.111 |
| TCATCGCA | -0.0951 |
| ACTAGCCC | -0.0317 |
| AGGGAGTG | -0.295 |
| AGCACGTG | -0.0228 |
| AATAGTGA | 0.0686 |
| AGAGGCAG | -0.319 |
| CGGCTACC | -0.0748 |
| AATGCGTC | -0.218 |
| CAGAGATA | 0.0489 |
| GTTCCTTA | -0.0771 |
| ACGGGAAG | -0.197 |
| CAGAGTAA | -0.165 |

| Sequence | PBM E-score |
| --- | --- |
| AGAGCCTC | -0.222 |
| CTGGCTCC | -0.17 |
| AGTTCGGA | 0.352 |
| TGTCTTAA | -0.039 |
| ATCACTAC | -0.0951 |
| ATTTGCAA | 0.146 |
| CCACCTGA | -0.0496 |
| ACGGCCTG | -0.156 |
| GGAACGCC | -0.153 |
| AAAATCAA | 0.175 |
| AACACCGC | -0.0108 |
| GCAATCTA | 0.101 |
| ACTGCGTG | -0.186 |
| TGATAACA | 0.234 |
| CAGCGATC | -0.215 |
| GCAGCTCA | -0.0107 |
| CAGGCGGA | 0.163 |
| GTCACTCA | 0.127 |
| TAAAGAGA | 0.19 |
| AGATAAAT | 0.273 |
| GACACCAC | -0.198 |
| AATGTAGC | -0.142 |

| Sequence | PBM E-score |
| --- | --- |
| ACATACTC | 0.0814 |
| CGTAGTGA | -0.176 |
| ACGGCAGC | -0.0498 |
| AGGTCGCA | -0.0454 |
| GTTTCAAA | 0.212 |
| AGGAGGGA | -0.18 |
| TGCAGTAA | -0.137 |
| ACCGTGGG | -0.237 |
| CATCGTGG | -0.226 |
| ACTAGGCA | -0.15 |
| GTCCGGAA | 0.402 |
| CACGCACG | -0.158 |
| ACAGAGAT | 0.0393 |
| ATTTTGCC | 0.0339 |
| ATTGGGTG | 0.129 |
| GTCCTCGA | -0.119 |
| ACAGAGCA | 0.0566 |
| ACTCATTA | 0.151 |
| ATATTGCG | -0.00328 |
| AATATCTC | 0.196 |
| CAACGCGC | 0.102 |
| ACGGTGAT | -0.0435 |

| Sequence | PBM E-score |
| --- | --- |
| AGCAACAA | 0.175 |
| TAATCCCA | -0.0296 |
| ATCCGTCG | 0.0307 |
| GATTGGAC | -0.0604 |
| AATACCCC | -0.0993 |
| CGCCTCAG | -0.158 |
| ATTTGATC | 0.025 |
| CCTATCTA | -0.0945 |
| ATGGAATA | 0.247 |
| AAAACCAG | -0.129 |
| CCTAGAAC | -0.0639 |
| AGTTGGAG | 0.0595 |
| ACAACGCA | -0.0197 |
| CCACTAAA | 0.00512 |
| GAACTGAC | -0.197 |
| CTGGTCTC | -0.254 |
| ACGTTGCC | -0.283 |
| ACCCATTG | -0.0815 |
| GCAACCAC | -0.0245 |
| CGGTGAGA | 0.0413 |
| AGACCCGG | 0.105 |
| ACCCGAGA | 0.0446 |

| Sequence | PBM E-score |
| --- | --- |
| ACTGTGCT | -0.129 |
| CAATACAC | 0.0377 |
| ATGTCCCG | 0.0332 |
| GGGCCTAC | -0.251 |
| CACTGGCG | -0.217 |
| CCTACAAA | 0.128 |
| GCACCACC | -0.122 |
| GCCGTAGC | -0.249 |
| CGTCAGAG | -0.13 |
| GACGACAA | 0.0999 |
| AAACGCTA | 0.0761 |
| GTGTTACA | 0.185 |
| AGGCGATA | -0.0566 |
| TCACGGAA | 0.238 |
| AGCCGCCA | -0.0466 |
| CGGGCTCA | -0.138 |
| AAGCATCC | -0.13 |
| CTATTAAG | 0.0958 |
| CTGACAGA | 0.045 |
| CGGAGACC | 0.315 |
| AGTAAAAT | 0.177 |
| ATTGGAAA | 0.0528 |
